Reference: the supplement of paper PMC10369915
The other results are listed elsewhere or left out. Rule as the data show it: active = 3.2 or more and inactive = the rest. Only a few entries rise above the background.

How the values were obtained:
Assay in all cases: enrichment score (SH2-bound / input frequency) (ratio); bacterial display of known human phosphotyrosine sites (pTyr-Var adds point mutants) read by sequencing; higher = stronger binding; tyrosines were phosphorylated by kinases first
Settings in all cases: peptide library: Human pTyr
SHP2 C-SH2 domain E139D = biological target: SHP2 C-SH2 domain E139D
[1] = biological target: SHP2 C-SH2 domain wild-type
SHP2 N-SH2 domain L43F = biological target: SHP2 N-SH2 domain L43F
SHP2 N-SH2 domain T42A = biological target: SHP2 N-SH2 domain T42A
SHP2 N-SH2 domain T52S = biological target: SHP2 N-SH2 domain T52S
[2] = biological target: SHP2 N-SH2 domain wild-type

Measured: enrichment score
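Also: displayed peptides selected on beads carrying the immobilized SH2 domain, with library peptides lacking any tyrosine serving as negative controls.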

EHFMAAGYTAIEKVV [EPHA2_HUMAN_930]
inactive: SHP2 C-SH2 domain E139D 0.891 | [1] 1.55 | SHP2 N-SH2 domain L43F 0.709 | SHP2 N-SH2 domain T42A 0.69 | SHP2 N-SH2 domain T52S 0.77 | [2] 0.556

GHQKRIAYSLLGLKD [EPHA2_HUMAN_960]
inactive: SHP2 C-SH2 domain E139D 1.12 | [1] 0.965 | SHP2 N-SH2 domain L43F 0.939 | SHP2 N-SH2 domain T42A 1.42 | SHP2 N-SH2 domain T52S 1.15 | [2] 1.18

TAVDPHTYEDPTQAV [EPHA3_HUMAN_602_YA]
inactive: SHP2 C-SH2 domain E139D 0.774 | [1] 0.752 | SHP2 N-SH2 domain L43F 0.746 | SHP2 N-SH2 domain T42A 0.58 | SHP2 N-SH2 domain T52S 0.728 | [2] 0.709

TAVDPFTYEDPNQAV [EPHA4_HUMAN_602_YA]
inactive: SHP2 C-SH2 domain E139D 0.772 | [1] 0.645 | SHP2 N-SH2 domain L43F 1.1 | SHP2 N-SH2 domain T42A 0.77 | SHP2 N-SH2 domain T52S 0.656 | [2] 0.457

KLPGVRTYIDPHTAE [EPHA5_HUMAN_650_YA]
inactive: SHP2 C-SH2 domain E139D 0.823 | [1] 0.794 | SHP2 N-SH2 domain L43F 0.707 | SHP2 N-SH2 domain T42A 0.68 | SHP2 N-SH2 domain T52S 0.708 | [2] 0.708

TYIDPHTYEDPNQAV [EPHA5_HUMAN_656]
inactive: SHP2 C-SH2 domain E139D 0.573 | [1] 0.885 | SHP2 N-SH2 domain L43F 0.737 | SHP2 N-SH2 domain T42A 0.746 | SHP2 N-SH2 domain T52S 0.711 | [2] 0.512

TAIDPHTYEDPNQAV [EPHA5_HUMAN_656_YA]
inactive: SHP2 C-SH2 domain E139D 0.739 | [1] 0.564 | SHP2 N-SH2 domain L43F 0.652 | SHP2 N-SH2 domain T42A 0.709 | SHP2 N-SH2 domain T52S 0.628 | [2] 0.818

EDDPEAAYTTTGGKI [EPHA6_HUMAN_831]
inactive: SHP2 C-SH2 domain E139D 1.02 | [1] 0.781 | SHP2 N-SH2 domain L43F 0.893 | SHP2 N-SH2 domain T42A 0.759 | SHP2 N-SH2 domain T52S 0.851 | [2] 0.857

DSIKMGQYKNNFVAA [EPHA6_HUMAN_978]
inactive: SHP2 C-SH2 domain E139D 0.988 | [1] 0.821 | SHP2 N-SH2 domain L43F 0.881 | SHP2 N-SH2 domain T42A 0.92 | SHP2 N-SH2 domain T52S 0.729 | [2] 1.05

AITSPFKYQSLLTKN [ADRB2_HUMAN_141]
inactive: SHP2 C-SH2 domain E139D 1.03 | [1] 1.01 | SHP2 N-SH2 domain L43F 1.26 | SHP2 N-SH2 domain T42A 1.03 | SHP2 N-SH2 domain T52S 0.989 | [2] 1.15

EDDPDAAYTTTGGKI [EPHA8_HUMAN_793]
inactive: SHP2 C-SH2 domain E139D 0.999 | [1] 0.719 | SHP2 N-SH2 domain L43F 0.991 | SHP2 N-SH2 domain T42A 0.861 | SHP2 N-SH2 domain T52S 0.873 | [2] 0.848

IYIDPFTYEDPNEAV [EPHB1_HUMAN_600]
inactive: SHP2 C-SH2 domain E139D 1.12 | [1] 1.01 | SHP2 N-SH2 domain L43F 0.909 | SHP2 N-SH2 domain T42A 1.13 | SHP2 N-SH2 domain T52S 1.25 | [2] 0.896

DDTSDPTYTSSLGGK [EPHB1_HUMAN_778]
inactive: SHP2 C-SH2 domain E139D 0.763 | [1] 0.548 | SHP2 N-SH2 domain L43F 0.536 | SHP2 N-SH2 domain T42A 0.537 | SHP2 N-SH2 domain T52S 0.57 | [2] 0.622

SAIKMVQYRDSFLTA [EPHB1_HUMAN_928]
inactive: SHP2 C-SH2 domain E139D 0.646 | [1] 0.536 | SHP2 N-SH2 domain L43F 0.671 | SHP2 N-SH2 domain T42A 0.52 | SHP2 N-SH2 domain T52S 0.567 | [2] 0.634

DDTSDPTYTSALGGK [EPHB2_HUMAN_780]
inactive: SHP2 C-SH2 domain E139D 0.723 | [1] 0.608 | SHP2 N-SH2 domain L43F 0.638 | SHP2 N-SH2 domain T42A 0.621 | SHP2 N-SH2 domain T52S 0.65 | [2] 0.603

VAIDPFTYEDPNEAV [EPHB3_HUMAN_614_YA]
inactive: SHP2 C-SH2 domain E139D 0.87 | [1] 0.827 | SHP2 N-SH2 domain L43F 0.682 | SHP2 N-SH2 domain T42A 0.813 | SHP2 N-SH2 domain T52S 1.05 | [2] 0.969

DDPSDPTYTSSLGGK [EPHB3_HUMAN_792]
inactive: SHP2 C-SH2 domain E139D 0.653 | [1] 0.563 | SHP2 N-SH2 domain L43F 0.793 | SHP2 N-SH2 domain T42A 0.619 | SHP2 N-SH2 domain T52S 0.708 | [2] 0.678

TGGPAPQYGGGGGGG [EPHB4_HUMAN_987]
inactive: SHP2 C-SH2 domain E139D 0.339 | [1] 0.505 | SHP2 N-SH2 domain L43F 0.442 | SHP2 N-SH2 domain T42A 0.617 | SHP2 N-SH2 domain T52S 1.4 | [2] 0.942

DGPYSNPYENSLIPA [EPOR_HUMAN_489]
inactive: SHP2 C-SH2 domain E139D 0.697 | [1] 0.489 | SHP2 N-SH2 domain L43F 0.62 | SHP2 N-SH2 domain T42A 0.429 | SHP2 N-SH2 domain T52S 0.515 | [2] 0.456

AEPLPPSYVACSGGG [EPOR_HUMAN_504]
inactive: SHP2 C-SH2 domain E139D 0.641 | [1] 0.406 | SHP2 N-SH2 domain L43F 0.536 | SHP2 N-SH2 domain T42A 0.393 | SHP2 N-SH2 domain T52S 0.201 | [2] 0.28

SPAFDNLYYWDQDPP [ERBB2_HUMAN_1221]
inactive: SHP2 C-SH2 domain E139D 0.776 | [1] 0.858 | SHP2 N-SH2 domain L43F 0.697 | SHP2 N-SH2 domain T42A 0.84 | SHP2 N-SH2 domain T52S 0.907 | [2] 0.877

SPAFDNLYAWDQDPP [ERBB2_HUMAN_1221_YA]
inactive: SHP2 C-SH2 domain E139D 0.536 | [1] 0.428 | SHP2 N-SH2 domain L43F 0.765 | SHP2 N-SH2 domain T42A 0.695 | SHP2 N-SH2 domain T52S 0.471 | [2] 0.894

EEEDVNGYVMPDTHL [ERBB3_HUMAN_1159]
inactive: SHP2 C-SH2 domain E139D 1.05 | [1] 0.952 | SHP2 N-SH2 domain L43F 1.08 | SHP2 N-SH2 domain T42A 0.888 | SHP2 N-SH2 domain T52S 1.03 | [2] 0.969

EEDEDEEYEYMNRRR [ERBB3_HUMAN_1197]
inactive: SHP2 C-SH2 domain E139D 1.42 | [1] 0.891 | SHP2 N-SH2 domain L43F 1.6 | SHP2 N-SH2 domain T42A 1.21 | SHP2 N-SH2 domain T52S 1.52 | [2] 1.17

EEDEDEEYEAMNRRR [ERBB3_HUMAN_1197_YA]
inactive: SHP2 C-SH2 domain E139D 1.33 | [1] 0.841 | SHP2 N-SH2 domain L43F 0.632 | SHP2 N-SH2 domain T42A 0.733 | SHP2 N-SH2 domain T52S 0.817 | [2] 0.977

DEDEEYEYMNRRRRH [ERBB3_HUMAN_1199]
inactive: SHP2 C-SH2 domain E139D 0.902 | [1] 0.928 | SHP2 N-SH2 domain L43F 0.884 | SHP2 N-SH2 domain T42A 0.839 | SHP2 N-SH2 domain T52S 0.874 | [2] 1.07

SSLEELGYEYMDVGS [ERBB3_HUMAN_1222]
inactive: SHP2 C-SH2 domain E139D 0.893 | [1] 0.818 | SHP2 N-SH2 domain L43F 0.774 | SHP2 N-SH2 domain T42A 0.953 | SHP2 N-SH2 domain T52S 0.798 | [2] 0.768

GTTPDEDYEYMNRQR [ERBB3_HUMAN_1260]
inactive: SHP2 C-SH2 domain E139D 0.64 | [1] 0.684 | SHP2 N-SH2 domain L43F 0.665 | SHP2 N-SH2 domain T42A 0.533 | SHP2 N-SH2 domain T52S 0.601 | [2] 0.733

FYEEIKKYEKLETEE [ADRBK1_HUMAN_92]
inactive: SHP2 C-SH2 domain E139D 2.1 | [1] 2.41 | SHP2 N-SH2 domain L43F 3 | SHP2 N-SH2 domain T42A 1.15 | SHP2 N-SH2 domain T52S 2.89 | [2] 1.8

GTTPDEDYEAMNRQR [ERBB3_HUMAN_1260_YA]
inactive: SHP2 C-SH2 domain E139D 0.646 | [1] 0.606 | SHP2 N-SH2 domain L43F 0.47 | SHP2 N-SH2 domain T42A 0.682 | SHP2 N-SH2 domain T52S 0.606 | [2] 0.743

TPDEDYEYMNRQRDG [ERBB3_HUMAN_1262]
inactive: SHP2 C-SH2 domain E139D 0.608 | [1] 1.06 | SHP2 N-SH2 domain L43F 0.951 | SHP2 N-SH2 domain T42A 0.873 | SHP2 N-SH2 domain T52S 0.709 | [2] 0.994

GGGPGGDYAAMGACP [ERBB3_HUMAN_1276]
inactive: SHP2 C-SH2 domain E139D 0.866 | [1] 0.685 | SHP2 N-SH2 domain L43F 0.732 | SHP2 N-SH2 domain T42A 0.734 | SHP2 N-SH2 domain T52S 0.736 | [2] 0.957

CPASEQGYEEMRAFQ [ERBB3_HUMAN_1289]
inactive: SHP2 C-SH2 domain E139D 1.3 | [1] 0.985 | SHP2 N-SH2 domain L43F 1.11 | SHP2 N-SH2 domain T42A 1.05 | SHP2 N-SH2 domain T52S 1.25 | [2] 1.34

SAFDNPDYWHSRLFP [ERBB3_HUMAN_1328]
inactive: SHP2 C-SH2 domain E139D 0.68 | [1] 0.686 | SHP2 N-SH2 domain L43F 0.605 | SHP2 N-SH2 domain T42A 0.579 | SHP2 N-SH2 domain T52S 0.746 | [2] 0.755

DMMDAEEYLVPQAFN [ERBB4_HUMAN_1022]
inactive: SHP2 C-SH2 domain E139D 0.858 | [1] 0.776 | SHP2 N-SH2 domain L43F 0.739 | SHP2 N-SH2 domain T42A 0.719 | SHP2 N-SH2 domain T52S 0.716 | [2] 1.05

GHSPPPAYTPMSGNQ [ERBB4_HUMAN_1056]
inactive: SHP2 C-SH2 domain E139D 0.676 | [1] 0.656 | SHP2 N-SH2 domain L43F 0.751 | SHP2 N-SH2 domain T42A 0.685 | SHP2 N-SH2 domain T52S 0.791 | [2] 0.869
